Reference: patent US9233155B2, “Method of treating solid cancers using anti-c-Met antibody and sorafenib combination therapy” (Samsung Electronics Co., Ltd., priority 2013, dated 2016)

How the values were obtained:
Details in all cases: among huAbF46-H4-A1, -A2, -A3, -A5
c-Met [1] = target: T1, c-Met (Homo sapiens, UniProt P08581); test: Affinity for c-Met of affinity-matured antibodies; format: binding
Akt phosphorylation = Akt phosphorylation by affinity-matured antibodies; format: cell-based
c-Met [2] = target: T1, c-Met; test: c-Met degradation degree of affinity-matured antibodies; format: cell-based

T1 sequence (P08581 25-1390): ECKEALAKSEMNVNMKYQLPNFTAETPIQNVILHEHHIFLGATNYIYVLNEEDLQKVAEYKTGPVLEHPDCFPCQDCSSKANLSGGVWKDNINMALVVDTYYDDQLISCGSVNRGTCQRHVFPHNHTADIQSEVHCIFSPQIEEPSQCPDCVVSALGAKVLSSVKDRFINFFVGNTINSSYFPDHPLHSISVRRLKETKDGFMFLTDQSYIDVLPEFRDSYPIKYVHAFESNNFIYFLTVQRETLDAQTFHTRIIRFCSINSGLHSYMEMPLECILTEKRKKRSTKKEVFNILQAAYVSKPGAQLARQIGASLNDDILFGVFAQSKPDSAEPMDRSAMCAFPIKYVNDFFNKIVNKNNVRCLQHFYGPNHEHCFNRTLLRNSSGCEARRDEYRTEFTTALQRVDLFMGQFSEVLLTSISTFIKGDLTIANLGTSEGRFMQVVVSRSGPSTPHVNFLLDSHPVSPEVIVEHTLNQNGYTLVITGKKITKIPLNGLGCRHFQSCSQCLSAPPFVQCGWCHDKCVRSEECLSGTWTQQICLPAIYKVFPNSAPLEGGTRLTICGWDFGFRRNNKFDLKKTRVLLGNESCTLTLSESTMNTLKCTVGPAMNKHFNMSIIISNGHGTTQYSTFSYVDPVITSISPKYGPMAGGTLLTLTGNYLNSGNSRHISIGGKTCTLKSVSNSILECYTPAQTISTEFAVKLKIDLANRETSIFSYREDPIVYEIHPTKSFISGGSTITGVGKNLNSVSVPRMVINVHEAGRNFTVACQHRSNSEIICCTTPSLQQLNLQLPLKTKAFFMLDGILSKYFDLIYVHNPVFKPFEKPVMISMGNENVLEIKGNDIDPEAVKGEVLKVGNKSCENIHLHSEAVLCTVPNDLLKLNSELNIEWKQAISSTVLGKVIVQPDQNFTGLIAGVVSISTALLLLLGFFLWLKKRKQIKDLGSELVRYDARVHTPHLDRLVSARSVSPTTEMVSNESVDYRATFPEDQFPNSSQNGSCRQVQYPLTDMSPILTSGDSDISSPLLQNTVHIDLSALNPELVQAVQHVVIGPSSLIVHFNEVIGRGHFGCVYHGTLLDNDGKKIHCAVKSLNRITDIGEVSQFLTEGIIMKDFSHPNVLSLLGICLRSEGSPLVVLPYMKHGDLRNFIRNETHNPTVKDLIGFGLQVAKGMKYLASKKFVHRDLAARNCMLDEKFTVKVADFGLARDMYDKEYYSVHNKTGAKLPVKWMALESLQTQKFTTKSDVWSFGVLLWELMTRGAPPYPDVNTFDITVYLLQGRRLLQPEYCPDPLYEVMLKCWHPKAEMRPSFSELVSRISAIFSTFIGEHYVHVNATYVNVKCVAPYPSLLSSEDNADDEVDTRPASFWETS

affinity for c-Met (rank among the four selected antibodies) (c-Met [1]): highest
c-Met degradation degree (rank among the four selected antibodies) (c-Met [2]): lowest
B1: huAbF46-H4-A1: affinity-matured humanized anti-c-Met antibody of L3-1 origin (CDR-L3 SEQ ID NO: 13) (antibody)
heavy: EVQLVESGGGLVQPGGSLRLSCAASGFTFTDYYMSWVRQAPGKGLEWLGFIRNKANGYTTEYSASVKGRFTISRDNSKNTLYLQMNSLRAEDTAVYYCARDNWFAYWGQGTLVTVSSASTKGPSVFPLAPSSKSTSGGTAALGCLVKDYFPEPVTVSWNSGALTSGVHTFPAVLQSSGLYSLSSVVTVPSSSLGTQTYICNVNHKPSNTKVDKKVEPKSCDCH[letters of human IgG1 Fc not shown]
light: DIQMTQSPSSLSASVGDRVTITCKSSQSLLASGNQNNYLAWHQQKPGKAPKMLIIWASTRVSGVPSRFSGSGSGTDFTLTISSLQPEDFATYYCQQSYSRPYTFGQGTKVEIKRTVAAPSVFIFPPSDEQLKSGTASVVCLLNNFYPREAKVQWKVDNALQSGNSQESVTEQDSKDSTYSLSSTLTLSKADYEKHKVYACEVTHQGLSSPVTKSFNRGEC
Akt phosphorylation (rank among the four selected antibodies) (Akt phosphorylation): lowest
